Results from the supplement of paper PMC6135742.
Where a name gives a salt, the structure may show the parent alone. ± gives the standard deviation of the averaged measurements. In all, about 2,600 compounds were measured (“MBP+ mature oligodendrocyte number relative to DMSO vehicle control”: median about -0.34, highest 2% from about 13 on). The list shows a part of the results.

System: jimpy (Plp1 jimpy) mouse iPSC-derived oligodendrocyte progenitor cells
Assay: MBP+ mature oligodendrocyte number relative to DMSO vehicle control (SDs above negative control mean); higher = more surviving jimpy oligodendrocytes (rescue)
Settings: 10 µM; 3 days
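Note: 10 µM single dose with 3-day oligodendrocyte differentiation.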

Going from `CC[C@H](NC(=O)[C@H](C)NC)C(=O)N1C[C@@H](O)C[C@H]1Cc1c(-c2[nH]c3cc(F)ccc3c2C[C@@H]2C[C@H](O)CN2C(=O)[C@H](CC)NC(=O)[C@H](C)NC)[nH]c2cc(F)ccc12` [Birinapant] to `CCc1cc2c(cc1CC)CC(NC[C@H](O)c1ccc(O)c3[nH]c(=O)ccc13)C2` [Indacaterol Maleate], the “MBP+ mature oligodendrocyte number” value rises from -5.76 to -4.98.

Going from `CC(C)N(CC[C@H](c1ccccc1)c1cc(CO)ccc1O)C(C)C` to `CNCCc1cnc(CCC(c2ccccc2)c2ccccc2)[nH]1` [N-Methylhistaprodifen dioxalate salt], the “MBP+ mature oligodendrocyte number” value falls from 4.23 to under -4.47.

First: Cn1cc(C(F)(F)F)nc1-c1ccc(OCC(O)CNCCOc2ccc(O)c(C(N)=O)c2)cc1 (stereo not given)
Second: COCCNC(=O)COc1ccc(OCCNC[C@H](O)COc2ccccc2)cc1 [ZD 7114 hydrochloride]
The “MBP+ mature oligodendrocyte number” value of the first is higher: 6.1 for the first, 0.816 for the second.

Going from `CN1CCN2c3ncccc3Cc3ccccc3C2C1` (stereo not given) [Mirtazapine] to `CN1CCN(CC(=O)N2c3ccccc3C(=O)Nc3cccnc32)CC1` [Pirenzepine dihydrochloride], the “MBP+ mature oligodendrocyte number” value rises from 0.163 to 1.68.

First: CC(C)(Oc1ccc(Cl)cc1)C(=O)OCCOC(=O)c1cccnc1 [Etofibrate]
Second: CCCCOc1ccc(C(=O)Nc2ccc(F)cc2F)cc1
The “MBP+ mature oligodendrocyte number” value of the first is lower: 2.26 for the first, 6.85 for the second.

First: CC1(C)O[C@@H]2C[C@H]3[C@@H]4C[C@H](F)C5=CC(=O)C=C[C@]5(C)[C@@]4(F)[C@@H](O)C[C@]3(C)[C@]2(C(=O)CO)O1 [Fluocinolone Acetonide]
Second: CC[C@H]1OC(=O)[C@H](C)[C@@H](O[C@H]2C[C@@](C)(OC)[C@@H](O)[C@H](C)O2)[C@H](C)[C@@H](O[C@@H]2O[C@H](C)C[C@H](N(C)C)[C@H]2O)[C@](C)(O)C[C@@H](C)CN(C)[C@H](C)[C@@H](O)[C@]1(C)O [Azithromycin]
The “MBP+ mature oligodendrocyte number” value of the first is higher: 8.12 for the first, -4.61 for the second.

Going from `Cc1cc(C)nc(NS(=O)(=O)c2ccc(N)cc2)n1` [Sulfamethazine] to `Nc1ccc(S(=O)(=O)Nc2nccs2)cc1` [Sulfathiazole], the “MBP+ mature oligodendrocyte number” value falls from 1.37 to 0.342.

First: C[C@]12CC[C@@H]3c4ccc(O)cc4C[C@@H](CCCCCCCCC[S+]([O-])CCCC(F)(F)C(F)(F)F)[C@H]3[C@@H]1CC[C@@H]2O (stereo not given in full) [Fulvestrant]
Second: NC[C@@H]1O[C@H](C23CC4CC(CC(C4)C2)C3)Cc2c1ccc(O)c2O
The “MBP+ mature oligodendrocyte number” value of the first is higher: 5.94 ± 4.3 for the first, under -3.34 for the second.

`Clc1ccc(C2(c3ccc(-c4cn[nH]c4)cc3)CCNCC2)cc1` and `NC1(Cc2ccc(Cl)cc2)CCN(c2ncnc3[nH]ccc23)CC1` cannot be ordered by “MBP+ mature oligodendrocyte number” value: under -5.15 for the first, under -6.01 for the second.

Going from `CO/N=C(\C(=O)N[C@@H]1C(=O)N2C(C(=O)O)=C(COC(C)=O)CS[C@H]12)c1csc(N)n1` [Cefotaxime sodium] to `CN1CCc2nc(C(=O)N[C@@H]3C[C@@H](C(=O)N(C)C)CC[C@@H]3NC(=O)C(=O)Nc3ccc(Cl)cn3)sc2C1` [Edoxaban], the “MBP+ mature oligodendrocyte number” value rises from -0.943 to 2.6.

Going from `C=C[C@](C)(O)CC[C@@H]1[C@@]2(C)CCCC(C)(C)[C@@H]2CC[C@@]1(C)O` [Sclareol] to `C=C[C@]1(C)C[C@@H](OC(=O)CSC(C)(C)CNC(=O)[C@H](N)C(C)C)[C@]2(C)[C@H](C)CC[C@]3(CCC(=O)[C@H]32)[C@@H](C)[C@@H]1O` [Valnemulin HCl], the “MBP+ mature oligodendrocyte number” value rises from under -4.81 to -3.9.

`CCS(=O)(=O)c1cccc(-c2cc(C(=O)NC3CCN(C)CC3)c(C)c3[nH]c4ncc(C)cc4c23)c1` and `Cc1cc(Nc2cc(N3CCN(C)CC3)nc(Sc3ccc(NC(=O)C4CC4)cc3)n2)n[nH]1` [VX-680 (Tozasertib, MK-0457)] cannot be ordered by “MBP+ mature oligodendrocyte number” value: under -6.01 for the first, under -6.7 for the second.

Compared with `COC(=O)[C@H](Cc1ccccc1)NC(=O)[C@@H](N)CC(=O)O` [Aspartame], `O=C(O)CCC(C(=O)O)N1C(=O)c2ccccc2C1=O` [L-Glutamic acid, N-phthaloyl-] is lower in “MBP+ mature oligodendrocyte number” value: 0.973 for the first, 0.108 for the second.

Compared with `CCOC(=O)C1=C(N)Oc2ccc(Br)cc2C1C(C#N)C(=O)OCC` (stereo not given), `CCCCOc1cc(C(=O)OCCN(CC)CC)ccc1N` [Oxybuprocaine HCl] is higher in “MBP+ mature oligodendrocyte number” value: 1.51 for the first, 7.92 for the second.

Going from `N#C/C(=C1/SC[C@@H](c2ccc(Cl)cc2Cl)S1)n1ccnc1` [Luliconazole] to `CN[C@H]1CC[C@@H](c2ccc(Cl)c(Cl)c2)c2ccccc21` [Sertraline hydrochloride], the “MBP+ mature oligodendrocyte number” value falls from 19.8 to under -3.97.

Going from `O=C1O[C@H]([C@@H](O)CO)C([O-])=C1O.[Na+]` [Sodium ascorbate] to `NC[C@H](O)c1ccc(O)c(O)c1` [Noradrenaline bitartrate monohydrate], the “MBP+ mature oligodendrocyte number” value rises from -0.523 to 0.342.

Compared with `Clc1ccc2nsnc2c1NC1=NCCN1` [Tizanidine hydrochloride], `CN[C@H]1CC[C@@H](c2ccc(Cl)c(Cl)c2)c2ccccc21` [Sertraline HCl] is lower in “MBP+ mature oligodendrocyte number” value: 0.896 for the first, under -6.35 for the second.

Compared with `Clc1ccc2nsnc2c1NC1=NCCN1` [Tizanidine HCl], `C=CC(=O)Nc1cccc(Oc2nc(Nc3ccc(N4CCN(C)CC4)cc3)ncc2Cl)c1` is lower in “MBP+ mature oligodendrocyte number” value: 2.2 for the first, under -6.7 for the second.

Compared with `CC(=O)Nc1nnc(S(N)(=O)=O)s1` [Acetazolamide], `C[C@@](Cc1ccc(O)c(O)c1)(NN)C(=O)O` [Carbidopa] is higher in “MBP+ mature oligodendrocyte number” value: -0.786 for the first, -0.737 for the second.

Going from `Nc1nc(OCc2cc(Br)cs2)c2[nH]cnc2n1` [Lomeguatrib] to `O=C(O)c1cccc(-c2noc(-c3ccccc3F)n2)c1` [Ataluren (PTC124)], the “MBP+ mature oligodendrocyte number” value rises from 1.35 ± 0.6 to 4.97.

Compared with `CC(C)Oc1ccc2c(=O)c(-c3ccccc3)coc2c1` [Ipriflavone (Osteofix)], `Cc1cc(C(C)Nc2ccccc2)c2nc(N3CCOCC3)cc(=O)n2c1` (stereo not given) is lower in “MBP+ mature oligodendrocyte number” value: 1.12 for the first, -4.08 for the second.

Going from `c1cc(CN2CCCCC2)cc(OCCCNc2nc3ccccc3s2)c1` to `Cc1c(-c2ccc(O)cc2)n(Cc2ccc(OCCN3CCCCCC3)cc2)c2ccc(O)cc12` [Bazedoxifene HCl], the “MBP+ mature oligodendrocyte number” value falls from -2.5 to under -4.81.

Compared with `CCN(CC)CCNC(=O)c1ccc(N)cc1` [Procainamide hydrochloride], `CCCCc1oc2ccc(NS(C)(=O)=O)cc2c1C(=O)c1ccc(OCCCN(CCCC)CCCC)cc1` [Dronedarone HCl] is lower in “MBP+ mature oligodendrocyte number” value: -0.104 for the first, under -4.81 for the second.

First: c1ccc2c(c1)CC(N1CCN(c3cccc4c3OCCO4)CC1)C2
Second: C=CC(=O)Nc1cccc(Sc2nc(Nc3ccc(N4CCN(C)CC4)cc3)ncc2Cl)c1
The “MBP+ mature oligodendrocyte number” value of the first is higher: 9.4 for the first, under -6.7 for the second.

First: CCn1c(N)c(C(=O)NC)c(=O)c2ccc(C#CC(C)(O)COC)nc21 (stereo not given)
Second: CC(C)(C)c1cc(C(C)(C)C)c(NC(=O)c2c[nH]c3ccccc3c2=O)cc1O [Ivacaftor (VX-770)]
The “MBP+ mature oligodendrocyte number” value of the first is lower: -2.67 for the first, 5 for the second.

First: CC[C@H]1OC(=O)[C@H](C)[C@@H](O[C@H]2C[C@@](C)(OC)[C@@H](O)[C@H](C)O2)[C@H](C)[C@@H](O[C@@H]2O[C@H](C)C[C@H](N(C)C)[C@H]2O)[C@](C)(O)C[C@@H](C)CN(C)[C@H](C)[C@@H](O)[C@]1(C)O [Azithromycin dihydrate]
Second: CC(=O)OC[C@H]1O[C@@H]([S-])[C@H](OC(C)=O)[C@@H](OC(C)=O)[C@@H]1OC(C)=O.CCP(CC)CC.[Au+] [Auranofin]
The “MBP+ mature oligodendrocyte number” value of the first is higher: -3.22 for the first, under -3.85 for the second.

Compared with `OCCn1cc(-c2ccc3c(c2)CC/C3=N\O)c(-c2ccncc2)n1`, `CCOc1nc2cccc(C(=O)O)c2n1Cc1ccc(-c2ccccc2-c2nnn[nH]2)cc1` [Candesartan] is lower in “MBP+ mature oligodendrocyte number” value: 1.07 for the first, 0.433 for the second.

`Cc1ccc(-c2cc(C(F)(F)F)nn2-c2ccc(S(N)(=O)=O)cc2)cc1` [Celecoxib] and `Cc1ccc([C@@H]2O[C@H](CO)[C@@H](O)[C@H](O)[C@H]2O)cc1Cc1ccc(-c2ccc(F)cc2)s1` [Canagliflozin] are within error of each other in “MBP+ mature oligodendrocyte number” value: 2.77 ± 1.8 for the first, 1.14 for the second.

First: CC(C)[N+]1(C)[C@@H]2CC[C@H]1C[C@@H](OC(=O)C(CO)c1ccccc1)C2 (stereo not given in full) [Ipratropium Bromide]
Second: CC(C)NC[C@@H](C(=O)N1CCN(c2ncnc3c2[C@H](C)C[C@H]3O)CC1)c1ccc(Cl)cc1
The “MBP+ mature oligodendrocyte number” value of the first is higher: 0.883 for the first, under -6.01 for the second.

Compared with `CC(C)[N+]1(C)[C@@H]2CC[C@H]1C[C@@H](OC(=O)C(CO)c1ccccc1)C2` (stereo not given in full) [Ipratropium bromide], `COC(=O)Nc1nc2cc(Sc3ccccc3)ccc2[nH]1` [Fenbendazole] is lower in “MBP+ mature oligodendrocyte number” value: -0.439 for the first, -2.63 for the second.

Compared with `CCOC(=O)[C@H]1O[C@@H]1C(=O)N[C@@H](CC(C)C)C(=O)NCCC(C)C` [Aloxistatin], `Cn1c(=O)c2c(ncn2CC2OCCO2)n(C)c1=O` [Doxofylline] is higher in “MBP+ mature oligodendrocyte number” value: -3.44 for the first, 4.21 for the second.

First: O=C1c2c(O)cc(O)cc2O[C@H](c2ccc(O)c(O)c2)[C@H]1O (racemic) [(±)-Taxifolin]
Second: CCC1(c2ccccc2)C(=O)NCNC1=O [Primidone]
The “MBP+ mature oligodendrocyte number” value of the first is higher: 0.753 for the first, -0.543 ± 0.74 for the second.

Going from `COc1cccc(C=NCCN=Cc2cccc(OC)c2[O-])c1[O-].[Cl-].[Mn+3]` to `COCC(=O)NC/C=C/c1ccc2ncnc(Nc3ccc(Oc4ccc(C)nc4)c(C)c3)c2c1`, the “MBP+ mature oligodendrocyte number” value falls from 5.98 to -1.2.

`Nc1ncnc2c1ncn2[C@@H]1O[C@H](CO)[C@@H](O)[C@@H]1O` [Vidarabine] and `COc1cc(Nc2c(C#N)cnc3cc(OCCCN4CCN(C)CC4)c(OC)cc23)c(Cl)cc1Cl` [Bosutinib] cannot be ordered by “MBP+ mature oligodendrocyte number” value: -4.07 for the first, under -3.34 for the second.

Compared with `CCCCCCCCCC(=O)N[C@@H](Cc1c[nH]c2ccccc12)C(=O)N[C@H](CC(N)=O)C(=O)N[C@@H](CC(=O)O)C(=O)N[C@@H]1C(=O)NCC(=O)N[C@@H](CCCN)C(=O)N[C@@H](CC(=O)O)C(=O)N[C@H](C)C(=O)N[C@@H](CC(=O)O)C(=O)NCC(=O)N[C@H](CO)C(=O)N[C@@H]([C@H](C)CC(=O)O)C(=O)N[C@@H](CC(=O)c2ccccc2N)C(=O)O[C@@H]1C` [Daptomycin], `COc1cc(Nc2c(C#N)cnc3cc(OCCCN4CCN(C)CC4)c(OC)cc23)c(Cl)cc1Cl` [Bosutinib (SKI-606)] is lower in “MBP+ mature oligodendrocyte number” value: -0.24 for the first, under -6.7 for the second.
